Data from PubChem BioAssay AID485297 (National Center for Advancing Translational Sciences (NCATS), 2010).
The whole screen tested about 320,000 compounds, of which about 9,100 (2.8%) were called active. This list was built around the results that the source calls inconclusive (neither active nor inactive); the mix of calls is not that of the screen. Calls follow the shape of the dose curve; as a rule, active = well fitted activation curve with a large enough effect; inconclusive = small, poorly fitted or top-dose-only effect; inactive = no such curve, though single readings can be large or run the other way. Potencies of inconclusive entries are left out as doubtful fits.
Potency is read from the fitted curve at half-maximal effect; tags tell the direction and shape of the fitted curve.

Assay: qHTS Assay for Rab9 Promoter Activators; also: nearly all actives have a fitted effect of over 60% in size
Settings: Huh7 Rab9 promoter-luciferase reporter, luminescence, 24 h; series mostly up to 9.22 µM
Summary of the method: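 Steps: seed 1500 Huh7 Rab9-luc cells per well, rest 2 h at 37 °C; add compound in DMSO; incubate 24 h; add luciferase reagent, 10 min ambient; read luminescence.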
For `CCOc1ccccc1NC(=O)CSc1nc2[nH]ncc2c(=O)[nH]1`, the Potency was “inactive”. With `O=C(OCC1CC(c2ccccn2)=NO1)c1ccc(Br)cc1` (stereo unspecified) the Potency was “inactive”. For `O=c1[nH]c(-c2ccccc2)nc2sc(-c3ccccc3)cc12`, the Potency was inconclusive [activator, full curve]. With `COc1ccc(COC(=O)c2ccc3c(=O)n4c(nc3c2)CCC4)cc1F` the Potency was “inactive”. In the case of `Cc1cc2ncc(-c3cccc(Cl)c3)cn2n1`, the Potency is reported as inconclusive [activator, partial curve]. In the case of `COc1cccc(/C=C/C(=O)c2ccc(NC3=NCCCS3)cc2)c1`, the Potency is reported as “inactive”. In the case of `O=c1[nH]c2ccccc2nc1CCc1ccccc1`, the Potency is reported as active: 3.16 µM. For `O=C(NC(=S)Nc1nc2c(s1)CCCC2)c1ccccc1`, the Potency was inconclusive [activator, single point]. With `O=C(Nc1nc2c(F)cc(F)cc2s1)c1ccco1` the Potency was active: 0.447 µM. For `COc1ccc(/C=N/Nc2nc3ccccc3c(=O)n2-c2ccccc2)cc1OC`, the Potency was inconclusive [activator, single point]. For `CC(C)c1ccc(NC(=O)COc2ccc(F)cc2C(=O)c2cnn(-c3ccccc3)c2)cc1`, the Potency was inconclusive [activator, single point]. With `COc1ccc(C(=O)Nc2nc3ccccc3[nH]2)cc1` the Potency was inconclusive [activator, partial curve]. In the case of `CN(C)S(=O)(=O)c1cccc(-c2nnc(-c3ccccc3)o2)c1`, the Potency is reported as inconclusive [activator, partial curve]. For `COC(=O)c1ccc(Cn2nc(C)cc2C)cc1`, the Potency was inconclusive [activator, single point]. In the case of `C(=N\c1nccs1)/c1cccnc1`, the Potency is reported as “inactive”. For `CN(CCc1ccccn1)C(=O)CCc1nnc(CCCc2ccccc2)o1`, the Potency was inconclusive [activator, single point]. For `Cc1cccc(OCC(=O)N(Cc2ccccc2)c2c(N)n(Cc3ccccc3)c(=O)[nH]c2=O)c1`, the Potency was “inactive”. For `N/C(=N\OC(=O)c1cc(Br)ccc1Cl)c1cccnc1`, the Potency was inconclusive [activator, single point]. In the case of `COC(=O)c1sccc1NC(=O)COc1ccc(F)cc1Cl`, the Potency is reported as “inactive”. With `COc1ccc(NC(=O)Nc2nnc(-c3ccccc3F)s2)cc1` the Potency was active: 2.82 µM. For `C/C(=N\NC(=O)c1cccc2ccccc12)c1cccs1`, the Potency was inconclusive [activator, partial curve]. With `O=C(/C=C/c1cccc2ccccc12)NCCC1=CCCCC1` the Potency was inconclusive [activator, partial curve]. For `CN(C)c1ccc(/C=C/C=C2/SC(=S)N(c3ccccc3)C2=O)cc1`, the Potency was inconclusive [activator, partial curve]. For `O=c1c2ccccc2nnn1CSc1ccccc1F`, the Potency was active: 0.891 µM. With `CC(=O)NCCc1nc2cc(NC(=O)c3ccccc3)ccc2n1C` the Potency was active: 3.55 µM. In the case of `COCCCNc1oc(-c2ccccc2F)nc1C#N`, the Potency is reported as inconclusive [activator, single point]. With `Cc1ccc(N2C(=O)c3ccccc3C2O)nc1` (stereo unspecified) the Potency was active: 0.282 µM. In the case of `Cc1ccc(Nc2nc3ccccc3o2)cc1F`, the Potency is reported as active: 1.58 µM. In the case of `O=c1oc(-c2ccc(Br)cc2)nc2ccccc12`, the Potency is reported as active: 3.16 µM. With `Cc1ccc(S(=O)(=O)N2[C@@H](c3ccccc3F)C(C(=O)O)=CC[C@H]2c2cccc(Cl)c2)cc1` the Potency was “inactive”. With `CCOC(=O)c1ccc(NC(=O)c2cc3c(s2)CCC3)cc1` the Potency was “inactive”. For `Clc1ccccc1Cn1nnc(-c2ccccc2)n1`, the Potency was inconclusive [activator, partial curve]. With `C=CCNc1ncnc2c1[nH]c1ccc(C)cc12` the Potency was active: 2.51 µM. In the case of `O=C(Nc1nccs1)c1ccc(Br)cc1`, the Potency is reported as active: 2.24 µM. With `CCn1nc(C)c(NC(=O)CCSc2nc(-c3ccco3)cc(C(F)(F)F)n2)c1C` the Potency was inconclusive [activator, single point]. With `CCCn1c(-c2nonc2N)nc2ccccc21` the Potency was “inactive”. With `COc1ccc(C2CC(c3ccccc3OC(=O)/C=C/c3ccccc3)=NN2C(C)=O)cc1` (stereo unspecified) the Potency was inconclusive [activator, single point]. With `O=C(C[n+]1ccccc1)Nc1c(Cl)cc(Cl)cc1Cl` the Potency was inconclusive [activator, single point]. In the case of `Cc1cccc(CSc2ccc(-c3cccs3)nn2)c1`, the Potency is reported as inconclusive [activator, partial curve]. With `CC1=CC(=C2N=C(c3ccccc3)OC2=O)C=C(C)O1` the Potency was inconclusive [activator, single point]. For `CCOc1ccc(/C=N/N(C)c2ccccc2)cc1OC`, the Potency was active: 3.16 µM. In the case of `CCCCCCCC(=O)Oc1ccc(C(=O)Nc2cc(C)on2)cc1`, the Potency is reported as inconclusive [activator, partial curve]. In the case of `O=S(=O)(NC1CCCCC1)c1ccc(N2CCOCC2)nc1`, the Potency is reported as “inactive”. With `O=C(O)c1cccc(N/N=C/c2cccc3ccccc23)c1` the Potency was inconclusive [activator, full curve, poor fit]. For `O=C(COC(=O)c1c(F)cccc1Cl)NC1CCCCC1`, the Potency was inconclusive [activator, partial curve]. For `Cc1ccc2oc(C(=O)Nc3nonc3C)c(C)c2c1`, the Potency was active: 3.16 µM. With `CSc1ccccc1-c1nc(-c2ccncc2)no1` the Potency was inconclusive [activator, single point]. In the case of `COc1ccc(S(=O)(=O)N[C@@H](C)C(=O)OCC(=O)Nc2cc3oc4ccccc4c3cc2OC)cc1`, the Potency is reported as inconclusive [activator, single point]. With `Cc1ccc(-c2cn3cccnc3n2)cc1` the Potency was inconclusive [activator, partial curve]. With `O=C(NCCc1ccccc1)c1cnc2ccccn2c1=O` the Potency was active: 0.562 µM. For `COCCNc1c(-c2ccc(OC)cc2)nc2ccc(Cl)cn12`, the Potency was inconclusive [activator, partial curve].
